# Results published in PubChem BioAssay (NCI).
# Where a structure was tested more than once in an assay, its records may differ in their call.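 Single-dose data. Exposure time 48 hours. Values below 10 considered active.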 Some entries of the source have several records that differ or are many. This is not the full list of results. The source may hold further records. This drug was run again and again over the years, at the concentration stated with the values; each value is one run. Marks such as (2×) give the number of equal values in this list.
# Tested on: SK-OV-3 ovarian
# Assay: NCI-60 one-dose screen, 48 h (100 = growth as untreated, 0 = no growth, -100 = all killed)
structure (smiles),measurement,setting,value
COc1cccc2c1C(=O)c1c(O)c3c(c(O)c1C2=O)C[C@@](O)(C(=O)CO)C[C@@H]3OC1CC(N)C(O)C(C)O1 (stereo not given in full),growth,"0.25 µM, runs of 2014","inactive: 59.1, 48.4, 38.1, 25.8, 33.5, 38.6, 35.7, 33.8, 32.2, 56.6 (2×), 22, 67, 26.6, 31, 44.6, 34.5, 48.2, 28.6, 66.4, 43.7, 44.4, 45.5, 48.7, 55, 38.2, 34.3, 44.8, 43.3, 41.6, 44.5, 61.6, 63.3, 56.3, 54.6, 51.2, 58.7, 57.9, 51.4 (2×), 54, 41.9, 42.3, 39.8, 46.6, 25.7, 38, 27.8, 32.7, 40.2, 45, 32, 37.7, 29.1, 30.4, 29.6 (2×), 26.1, 43.2, 38.8, 39.1, 39.9, 43.9, 36.9, 35.9, 38.9, 40.3, 27.7, 29.5, 35, 30.6, 28.3, 30, 29.4%"
same,growth,"0.25 µM, runs of 2015","inactive: 42.5 (2×), 43.3, 46, 44.6 (2×), 44.4, 41.6 (3×), 28.4, 38.6, 37, 33 (2×), 37.8, 49, 36.8, 25.8 (2×), 12.3, 28, 30.7, 16.6, 43.1, 31.9, 42.3, 42.6 (2×), 34.9 (2×), 41.3, 35.7, 40.3 (2×), 46.5, 29.1, 43 (2×), 42.8, 30.9, 44, 52.3, 38.7 (2×), 50.2, 30.3, 37.3 (2×), 44.5 (2×), 34.3, 50.1, 61.9, 56.9, 52.1, 57.9, 64.8, 48.9, 45.6, 43.2, 43.8, 59.3, 51.1, 51.4, 31.7, 33.4, 42.2, 48.1, 45.4, 36.5, 40.7, 44.8, 40.4, 38.3, 36.3, 40, 46.1%"
same,growth,"0.25 µM, runs of 2016","inactive: 51.7 (2×), 44.6, 42.7, 56.5, 54.6, 43.6 (2×), 46, 36.8 (2×), 37.6, 39.3, 48.5 (3×), 32.3, 47.9, 45.8, 44.4 (2×), 27.1, 38.7 (2×), 46.2, 34.2, 33.8, 36.3, 29.7 (2×), 41.4, 31.3, 35.3, 31.5, 34.5, 43.9, 44.1, 38.2, 44.7, 43.1 (2×), 48.6, 39.5, 52.5 (2×), 54, 44.9, 36.2, 47.4, 49.7 (2×), 57.6, 47.7, 56.9, 50.7, 61.5, 44.5, 58.3, 64, 49.1, 58.9, 77.9, 50, 71.9, 57.5, 63.9, 69, 77, 74.6, 51, 62.2, 58.5, 54.7, 59.6, 62.6, 59.9, 67.9, 37.8, 56.7, 46.9, 49.3, 48.8%"
same,growth,"0.25 µM, runs of 2017","inactive: 44 (2×), 45.8, 27.3, 45.6 (3×), 43.6, 45.5 (2×), 25.4, 38.4 (2×), 32.2 (2×), 33.7, 38.3 (2×), 29.6 (3×), 34.2, 44.9, 42, 38.5, 36.7, 32.1, 41.3, 11.6, 39.2 (2×), 35.9, 40.3, 41.9 (2×), 42.5, 39, 51.8, 45.3, 52.9, 35.6, 43.3 (2×), 45, 42.2, 47 (2×), 43 (2×), 39.4, 47.6, 79.7, 78.9, 81.4, 94, 44.8, 33.5, 37.8, 48.2, 36.2 (2×), 47.7, 40.6 (2×), 28.7, 34.9 (2×), 31.6, 37.4 (2×), 33.1, 35.7, 39.9 (2×), 46.1, 44.7, 50, 50.7, 61, 59.2, 46, 31.7, 67.9, 66.1, 39.6, 38.6%"
same,growth,"0.25 µM, runs of 2018","inactive: 34.3, 32.3 (2×), 35.8, 39.3 (2×), 38.6, 36.3, 44.3, 37, 47.4, 44.7, 50.6, 33.8, 57.6, 53.5, 47.6, 46.3, 39.2, 34.5 (2×), 45, 54.8, 57.4, 48.3, 33, 38.3, 36.5, 35.5, 31, 30.5, 28.2, 24.6, 19.7, 26.3, 30, 25.5, 23.3, 26.2, 18.7, 25.2 (2×), 26.5, 27.4, 39.6, 43.4, 21.7%"
same,growth,"0.25 µM, runs of 2019","inactive: 37.7, 28.3, 32.2, 29.5, 28.1, 35.1, 36.4, 38.6 (2×), 28.9, 48.4, 33.2, 41.8 (2×), 39.9, 44.3, 38.8 (4×), 47.8, 33.1, 41.4, 30.3, 34.4, 23, 25.4, 26.1, 27.7, 26.8, 40.8, 60.7, 31.8, 28.4, 21.7, 27.1%"
same,growth,"0.25 µM, runs of 2020","inactive: 11.6, 23.4, 23 (2×), 22.9, 52.5 (2×), 37.6 (2×), 44.9, 43.2, 29.6, 53.9, 38, 42, 48.1, 44.1, 54.9, 41.8, 47.2, 44.8, 48.7, 37.3, 41.9, 73.1%"
same,growth,"0.25 µM, runs of 2021","inactive: 58.6, 49, 50.6, 49.9, 30.6 (2×), 37.8, 53.1, 42.1, 38, 36.7, 32.1, 61.6, 48.9, 50.4, 34, 46.7, 41.3 (2×), 27.2, 28.7 (2×), 34.9, 40.9, 37.6, 19.2, 16.1, 27.1, 52.3, 49.3, 46.3, 44, 43.9, 35, 46.2, 24.8, 19.5, 27.8, 33, 15, 15.7, 30.7, 27.5, 25.6, 50.9, 45.4, 34.1% and active: 5.44%"
same,growth,"0.25 µM, runs of 2022","active: 3.39%, 5.76%, 9.23% and inactive: 51.7, 64.8, 10.5, 18.3, 15.4, 36.2, 29.5, 39.9, 48.2, 32.4, 24.9, 25.7, 29.2, 79, 95.1, 49, 84.1, 89.7, 35.2, 35.5, 39.1, 38.2, 30.6%"
same,growth,"25 µM, runs of 1991","active: -7.7, -42.2, 4.58, -22, -27.9, -11.2, 2.19, -18.9, -81.7, -8.87, 5.22, -20.8, -1.88, -17.9, -20.9%"
same,growth,"25 µM, runs of 1992","active: 0.457, -21.7, 4.94 (2×), -20.8, -13.7, -2.67, 0.807, 2.48, -11.7, -23.9 (3×), -9.81, -14.8, -1.22, 1.94, -17.8, -3.41, -20.9 (2×), -6.46, -14.3, -24, 0, -2.73, 1.5, 0.529, -11.4, 6.81, -11.8 (2×), -6.1, -1.73, -5.38, -31, -0.301, -10.3, -8.65, -21.5 (2×), -11.2, 0.341, -21.6, -13.5, -22.4 (2×), -14.7, -26.3, -17, 4.28, -5.04, 6.8, -12.6, -15.6, -15.9 (2×), 7.29, -27.5, -6.05, -33.1, -6.12, -7.12, -37, -38.7, -15.1, 1.83, -14.5, -17.9, 3.9, -8.38, 4.78, -0.0775, 2.54, -40.2, -23.4, -5.73, -25.9, -94.2, -10.2, -12.4, -18.4, -15.2 (3×), 4.22, -0.584, -10, -7.88, -28.9, 3.01, -11.3, 0.343, -2.25, -29.9, -27.6, -82.4, -17.4, 4.79, -16.8, -40.6, -16.4, 5.18, -9.67, -11.5, -7.97, -21.3, -17.7, -1.51% and inactive: 16.1, 13.2, 70.2, 19.3, 36.2, 12.3, 10, 10.1 (2×), 44, 10.5, 12.5%"
same,growth,"25 µM, runs of 1993","active: -11.4, 8.97, -21.9, -21.3, -20.6, 0, -18.8, -18, -1.43, 4.91, -6.9, -6.24, -21.7, 9.61, 0.279, -18.4, -15.6, -17.4, -2.23, 2.95, -35.4, -9.8, -32.1, 5.45, -13.9, -26.1, -29.5, -18.7, 5.27, -8.23, 1.11, -21 (2×), 1.02, -35, -2.9, 4.77, -2.97, -21.8, 6.11, -20.3% and inactive: 14.4%, 15.5%, 12.7%"
same,growth,"25 µM, runs of 1994","active: 5.64, -1.27, -11.3, -0.575, 0.093, 6.96, -0.957, 6.67, -4.34, -14.4, -25.9, -29.2, -3.09, -32.1, 5.95, -28.8, -6.19, -4.71, 9.4, -46.3, -29.1, 4.78, -36, 1.64, -3.9, -14.2, 3.01, -20.2, -11.6, -15, -29.6, -10.8% and inactive: 103%, 10.2%, 23.4%"
same,growth,"25 µM, runs of 1995","active: 3.85, 4.79, -29.4, -4.12, -3.68, -30.5, 8.54, -15.1, 9.44, -4.62, 1.91, -9.81, -22.8, -59.5, -9.28, -22.6, -20.8, -0.172, -10.6, -6.34% and inactive: 16.1, 16.3, 24.8, 21%"
same,growth,"25 µM, runs of 1996","active: 9.1, -21.8 (2×), -1.42, 1.81, 3.29, 8.86, -6.89, -1.76, -0.724, -4.58, -15.8, -0.447, -10.1, -23.3, 6.42, 2.72, 4.17, -8.03, -0.588, 4.83, 9.24, 5.5, -7.82, -18.4, 6.05, -6.88, 3.17, 0.132, -1.49, -32, -20.4, 4.68, 0.193, 7, -33.8% and inactive: 24.4, 26.2 (2×), 21.8, 93.1, 19, 14.8, 14.2, 64.9, 36.9, 13.3 (2×), 11.7, 12.8, 25.1, 18, 27.5, 11.4, 14.5%"
